Results on eleven variants are retold here after the supplement of paper PMC12217912.

B1: TEV protease; numbered along this chain (parent)
chain: MGESLFKGPRDYNPISSSICHLTNESDGHTTSLYGIGFGPFIITNKHLFRRNNGTLVVQSLHGVFKVKDTTTLQQHLVDGRDMIIIRMPKDFPPFPQKLKFREPQREERICLVTTNFQTKSMSSMVSDTSCTFPSGDGIFWKHWIQTKDGQCGSPLVSTRDGFIVGIHSASNFTNTNNYFTSVPKNFMELLTNQEAQQWVSGWRLNADSVLWGGHKVFMVKPEEPFQPVKEATQL

Some of the results follow. The full chains were built here from the parent and the listed change. Inactive controls read about 0.05.
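Also: Bxb1 expression induced with 0.2% (w/v) L-rhamnose at OD600 near 0.5, cultures sampled hourly, flipped fraction per protease–substrate barcode pair counted by paired-end Illumina sequencing.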

In this experiment the parent is B1. The experiment in a line: raw area under fraction-flipped curve 0-4 h after induction (AUC4h, not background-subtracted), DNA-recorder readout of cleavage of the substrate (dimensionless); higher = more cleavage of the substrate by the protease variant. The conditions noted are these: temperature: 34 °C; time window: 0-4 h after rhamnose induction.
With MGESLFKGPRDYNPISSSICHLTNESDGHTTSLYGIGFGPFIITNKHLFRRNNGTLVVQSLHGVFKVKDTTTLQQHLVDGRDMIIIRMPKDFPPFPTKLKFREPQREERICLVTTNFQTKSMSSMVSDTSCTFPSGDGIFWKHWIQTKDGQCGSPLVSTRDGFIVGIHSASNFTNTNNYFTSVPKNFMELLTNQEAQQWVSGWRLNADSVLWGGHKVFMVKPEEPFQPVKEATQL [Q97T], the “area with substrate LNLYFQS” value came to 0.0588 and the “area with substrate TNLYFQS” value is 0.0683.
For MGESLFKGPRDYNPISSSICHLTNESDGHTTSLYGIGFGPFIITNKHLFRRNNGTLVVQSLHGVFKVKDTTTLQQHLVDGRDMIIIRMPKDFPPFPGKLKFREPQREERICLVTTNFQTKSMSSMVSDTSCTFPSGDGIFWKHWIQTKDGQCGSPLVSTRDGFIVGIHSASNFTNTNNYFTSVPKNFMELLTNQEAQQWVSGWRLNADSVLWGGHKVFMVKPEEPFQPVKEATQL [Q97G], the “area with substrate KNLYFQS” value is 0.0854.
On to MGESLFKGPRDYNPISSSICHLTNESDGHTTSLYGIGFGPFIITNKHLFRRNNGTLVVQSLHGVFKVKDTTTLQQHLVDGRDMIIIRMPKDFPPFPQKLKFREPQREERICLVTTNFQTKSMSSMVSDTSCTFPSGDLIFWKHWIQTKDGQCGSPLVSTRDGFIVGIHSASNFTNTNNYFTSVPKNFMELLTNQEAQQWVSGWRLNADSVLWGGHKVFMVKPEEPFQPVKEATQL [G138L], for which the “area with substrate LNLYFQS” value is 0.0547, the “area with substrate QNLYFQS” value is 0.0615, the “area with substrate RNLYFQS” value is 0.0516 and the “area with substrate WNLYFQS” value was found to be 0.0527. Also, the “area with substrate YNLYFQS” value is 0.0638.
With MGESLFKGPRDYNPISSSICHLTNESDGHTTSLYGIGFGPFIITNKHLFRRNNGTLVVQSLHGVFKVKDTTTLQQHLVDGRDMIIIRMPKDFPPFPQKLKFREPQREERICLVTTNFQTKSMSSMVSDTSCTFPSGDGIFWKHWIQTKDGQCGSPLVSTRDGFIVGIHSASNFTNTNNYFTSVPKNFMELLTNQSAQQWVSGWRLNADSVLWGGHKVFMVKPEEPFQPVKEATQL [E195S], the “area with substrate LNLYFQS” value worked out at 0.0697, the “area with substrate PNLYFQS” value turned out to be 0.054, the “area with substrate QNLYFQS” value is 0.0747 and the “area with substrate TNLYFQS” value was found to be 0.0612. In addition, the “area with substrate YNLYFQS” value was found to be 0.071.
Regarding MGESLFKGPRDYNPISSSICHLTNESDGHTTSLYGIGFGPFIITNKHLFRRNNGTLVVQSLHGVFKVKDTTTLIQHLVDGRDMIIIRMPKDFPPFPQKLKFREPQREERICLVTTNFQTKSMSSMVSDTSCTFPSGDGIFWKHWIQTKDGQCGSPLVSTRDGFIVGIHSASNFTNTNNYFTSVPKNFMELLTNQEAQQWVSGWRLNADSVLWGGHKVFMVKPEEPFQPVKEATQL [Q74I], the “area with substrate KNLYFQS” value turned out to be 0.0678, the “area with substrate MNLYFQS” value stood at 0.0585, the “area with substrate SNLYFQS” value stood at 0.059 and the “area with substrate WNLYFQS” value was 0.0521.
As for MGESLFKGPRDYNPISSSICHLTNESDGHTTSLYGIGFGPFIITNKHLFRRNNGTLVVQSLHGVFKVKDTTTLQQHLVDGRDMIIIRMPKDFPPNPQKLKFREPQREERICLVTTNFQTKSMSSMVSDTSCTFPSGDGIFWKHWIQTKDGQCGSPLVSTRDGFIVGIHSASNFTNTNNYFTSVPKNFMELLTNQEAQQWVSGWRLNADSVLWGGHKVFMVKPEEPFQPVKEATQL [F95N], the “area with substrate KNLYFQS” value is 0.0475, the “area with substrate SNLYFQS” value amounted to 0.0544, the “area with substrate TNLYFQS” value was 0.0473 and the “area with substrate VNLYFQS” value stood at 0.068. In addition, the “area with substrate WNLYFQS” value came to 0.0574.
Consider MGESLFKGPRDYNPISSSICHLTNESDGHTTSLYGIGFGPFIITNKHLFRRNNGTLVVQSLHGVFKVKDTTTLQQHLVDGRDMIIIRMPKDFPPLPQKLKFREPQREERICLVTTNFQTKSMSSMVSDTSCTFPSGDGIFWKHWIQTKDGQCGSPLVSTRDGFIVGIHSASNFTNTNNYFTSVPKNFMELLTNQEAQQWVSGWRLNADSVLWGGHKVFMVKPEEPFQPVKEATQL [F95L], for which the “area with substrate LNLYFQS” value was 0.0594, the “area with substrate PNLYFQS” value came out at 0.06 and the “area with substrate TNLYFQS” value was determined as 0.0509.
Consider MGESLFKGPRDYNPISSSICHLTNESDGHTTSLYGIGFGPFIITNKHLFRRNNGTLVVQSLHGVFKVKDTTTLQQHLVDGRDMIIIRMPKDFPPFPQKLKFREPQREERICLVTTNFQTKSMSSMVSDTSPTFPSGDGIFWKHWIQTKDGQCGSPLVSTRDGFIVGIHSASNFTNTNNYFTSVPKNFMELLTNQEAQQWVSGWRLNADSVLWGGHKVFMVKPEEPFQPVKEATQL [C131P], for which the “area with substrate LNLYFQS” value was determined as 0.0609, the “area with substrate PNLYFQS” value was determined as 0.111, the “area with substrate SNLYFQS” value was determined as 0.0758 and the “area with substrate TNLYFQS” value was found to be 0.0737. The “area with substrate WNLYFQS” value was found to be 0.0493.
As for MGESLFKGPRDYNPISSSICHLTNESDGHTTSLYGIGFGPFIITNKHLFRRNNGTLVVQSLHGVFKVKDTTTLQQHLVDGRDMIIIRMPKDFPPFPQKLKFREPQREERICLVTTNFQTKSMSSMVSDTSCTFPSGDGIFWKHWIQTKDGQCGSPLVSTRDGFIVGIHSASNFTNTNNYFTSVPKNFMELLTNQEAQQWVSGWRLNADSELWGGHKVFMVKPEEPFQPVKEATQL [V210E], the “area with substrate LNLYFQS” value is 0.0541, the “area with substrate NNLYFQS” value worked out at 0.056 and the “area with substrate SNLYFQS” value stood at 0.0558.
As to MGESLFKGPRDYNPISSSICHLTNESDGHTTSLYGIGFGPFIITNKHLFRRNNGTLVVQSLHGVFKVKDTTTLQQHLVDGRDMIIIRMPKDFPPFPQKLKFREPQREERICLVTTNFQTKSMSSMVSDTSCTFPSGDGIFWKHWIQTKDGQCGSPLVSTRDGFIVGIHSASNFTNTNNYFISVPKNFMELLTNQEAQQWVSGWRLNADSVLWGGHKVFMVKPEEPFQPVKEATQL [T181I], the “area with substrate KNLYFQS” value came to 0.0633, the “area with substrate MNLYFQS” value is 0.0682, the “area with substrate SNLYFQS” value was 0.0636 and the “area with substrate WNLYFQS” value was found to be 0.0608.
MGESLFKGPRDYNPISSSICHLTNESDGHTTSLYGIGFGPFIITNKHLFRRNNGTLVVQSLHGVFKVKDTTTLQQHLVDGRDMIIIRMPKDFPPFPQKLKFREPQREERICLVTTNFQTKSMSSMVSDTSCTFPSGDGIFWKHWIQTKDGQCGSPLVSTRDGFIVGIHSQSNFTNTNNYFTSVPKNFMELLTNQEAQQWVSGWRLNADSVLWGGHKVFMVKPEEPFQPVKEATQL [A170Q]: the “area with substrate LNLYFQS” value came out at 0.0695.
